The values below come from PubChem BioAssay AID1347073 (National Center for Advancing Translational Sciences (NCATS), 2019).

About 200 (0.44%) of roughly 45,000 compounds were called active. Inconclusive results (about 7%) are left out. Calls come from the whole dose curve; as a rule, active = well fitted activation curve with a large enough effect; inconclusive = small, poorly fitted or top-dose-only effect; inactive = no such curve, though single readings can be large or run the other way. This is one part of the list.

The assay can be described thus: qHTS of TDP-43 Inhibitors: NCGC Sytravon Library Screen. Note: 0% is about no effect; nearly all actives have a fitted effect of over 55% in size. As to conditions: yeast TDP-43 toxicity rescue, BacTiter-Glo growth, 24 h; series mostly up to 46.1 µM; growth rescue (activation): at the top concentration. The method in brief:
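TDP-43-expressing yeast, pregrown in raffinose, seeded at OD600 0.02 in galactose medium with compound for 24 hr at 30 deg C. Growth read by BacTiter-Glo luminescence, so rescue of toxicity appears as activation.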
In general terms: qHTS replaces the single test concentration by a dilution series.
`Cc1cc(C(F)(F)F)nn1CC(=O)Nc1cccnc1`: the “growth rescue (activation)” value is inactive: 5.36%.

As to `O=C(COC(=O)[C@@H]1CCCN1S(=O)(=O)c1ccccc1F)Nc1ccc(OC(F)F)cc1`, the “growth rescue (activation)” value was inactive: -6.89%.

Turning to `O=C(NN1CCOCC1)c1sc2cccc(F)c2c1Cl`, the “growth rescue (activation)” value was inactive: 12%.

Regarding `Brc1ccc(OCc2cn3ccccc3n2)cc1`, the “growth rescue (activation)” value is inactive: 17.4%.

As to `COc1ccc(C2CC(c3ccccc3)=NN2C(=O)COC(=O)c2cccc(O)c2)cc1` (configuration not stated), the “growth rescue (activation)” value is inactive: 8.07%.

Regarding `CCc1ccccc1NC(=O)CN(C)C(=O)COC(=O)c1ccccc1Cl`, the “growth rescue (activation)” value was inactive: 30.7%.

As for `CC1(C(=O)NS(=O)(=O)c2cccc(OC(F)F)c2)CCN1C(=O)CCc1cccs1` (configuration not stated), the “growth rescue (activation)” value is inactive: 7.96%.

For the molecule `CCN1CCN(C(=S)Nc2ccsc2C(=O)OC)CC1`, the “growth rescue (activation)” value is inactive: -7.92%.

As for `COC(=O)c1cc(C(=O)Nc2ccc(S(N)(=O)=O)cc2)cc([N+](=O)[O-])c1`, the “growth rescue (activation)” value was inactive: 15%.

`CSCCC(N=C(NS(=O)(=O)c1ccccc1)c1ccccc1)C(=O)O` (configuration not stated): the “growth rescue (activation)” value is inactive: 31.4%.

Take `COc1ccc(F)cc1C(=O)C1CCCN(Cc2c(C)n(C)n(-c3ccccc3)c2=O)C1` (configuration not stated): the “growth rescue (activation)” value is inactive: 10.3%.

As for `Cc1cc(NC(=O)Nc2cccc(C)c2C)no1`, the “growth rescue (activation)” value was inactive: 3.81%.

Turning to `COc1ccc(C(=O)Nc2cc3c(cc2C(=O)O)OCCCO3)c(OC)c1`, the “growth rescue (activation)” value was inactive: 14.6%.

Turning to `CCOc1ccc(C(=O)OCC(=O)NCc2ccco2)cc1OCC`, the “growth rescue (activation)” value was inactive: 12.9%.

For the molecule `O=C(Nc1ccccc1O)c1nc(Cl)ccc1Cl`, the “growth rescue (activation)” value was inactive: 9.34%.

As to `COc1ccc(/C=C/C(=O)OCC(=O)Nc2ccc(N3CCOCC3)cc2)cc1`, the “growth rescue (activation)” value was inactive: 10.5%.

Turning to `COc1ccc(/C=C(\NC(=O)c2ccc(OCC(C)C)cc2)C(=O)OCc2ccco2)cc1`, the “growth rescue (activation)” value is inactive: -3.04%.

With `CN(C)c1ccc(C(=O)NNC(=O)C23CC4CC(CC(C4)C2)C3)cc1`, the “growth rescue (activation)” value is inactive: 21.9%.

Turning to `CC(=O)c1cc(-c2ccccc2)n(CC(=O)N2CCCC2)c1C`, the “growth rescue (activation)” value is inactive: -7.66%.

Take `O=C(NC1CCCC1)C1CCN(C(=O)c2ccccc2Cl)CC1`: the “growth rescue (activation)” value was inactive: 21.5%.

Take `O=c1cnnc(N/N=C/c2c[nH]c3ccccc23)[nH]1`: the “growth rescue (activation)” value was inactive: -0.135%.

For the molecule `CCOc1ccc(N(CC(=O)NC2CC2)S(=O)(=O)c2ccc(C)cc2)cc1`, the “growth rescue (activation)” value is inactive: 9.02%.

As to `Cc1ccc(NC(=O)Cc2nc(COC(=O)Cc3cccc(C(F)(F)F)c3)cs2)cc1`, the “growth rescue (activation)” value was inactive: 3.74%.

For `COc1cc(OC)c(C(=O)OCC(=O)N2CCOCC2)cc1OC`, the “growth rescue (activation)” value is inactive: 6.52%.

Regarding `Cc1sc2nc(CSc3ccccc3)nc(N3CCN(C)CC3)c2c1C`, the “growth rescue (activation)” value is inactive: -28.2%.

Turning to `COC(=O)c1ccccc1NC(=O)c1ccc(F)cc1`, the “growth rescue (activation)” value is inactive: 7.36%.

As to `COc1cc(Cl)cc(C=O)c1OCC(=O)O`, the “growth rescue (activation)” value was inactive: 8.3%.

Turning to `COc1ccc(-c2cc(NC=O)c3ncc(-c4ccc(C(C)=O)cc4)n3c2)cc1OC`, the “growth rescue (activation)” value was inactive: 16.4%.

As to `COc1ccc(NC(=O)COC(=O)Cn2cnc3ccccc3c2=O)cc1OC`, the “growth rescue (activation)” value is inactive: 9.33%.

Take `CCc1ccc(OCC(=O)NNC(=O)CSc2nnc(-c3ccc(C)cc3)n2C)cc1`: the “growth rescue (activation)” value was inactive: 3.52%.

As to `O=C(COC(=O)CNC(=O)c1ccccc1)Nc1ccc2c(c1)OCO2`, the “growth rescue (activation)” value is inactive: -0.417%.

On to `NC(=O)NC(=O)CSc1nc2sc(-c3ccccc3)cc2c(=O)n1-c1ccccc1`, for which the “growth rescue (activation)” value was inactive: 12.7%.

`O=C(NC1CCS(=O)(=O)C1)C1C2CC3CC(C2)CC1C3` (configuration not stated): the “growth rescue (activation)” value was inactive: -1.05%.

For the molecule `CCN(CC)CCN(Cc1cc2cc(C)cc(C)c2[nH]c1=O)C(=S)NCc1ccco1`, the “growth rescue (activation)” value was inactive: -8.62%.

In the case of `Cc1nnc(SCC(=O)NNC(=O)COc2ccc(Cl)cc2)n1C`, the “growth rescue (activation)” value is inactive: 9.6%.

For `Cc1ccc(S(=O)(=O)CCC(=O)NCc2ccc(Cl)cc2)cc1`, the “growth rescue (activation)” value is inactive: 4.04%.

Consider `CN(C)CCNc1ccc(Cl)cc1[N+](=O)[O-]`, for which the “growth rescue (activation)” value is inactive: 13.4%.

As to `O=C(Nc1ccc2oc(-c3cccnc3)nc2c1)c1ccc(-c2cccc(Cl)c2)o1`, the “growth rescue (activation)” value was inactive: 15.1%.

For the molecule `CCOc1ccccc1NC(=O)c1ccc2nc[nH]c2c1`, the “growth rescue (activation)” value is inactive: 7.54%.

As to `CC(C)(C)c1cc(NC(=O)C2(C)CCN2C(=O)C2(c3ccccc3)CC2)no1` (configuration not stated), the “growth rescue (activation)” value is inactive: 29.3%.

On to `O=C(Nc1nccs1)C1CC(=O)N(c2ccccc2)C1` (configuration not stated), for which the “growth rescue (activation)” value is inactive: 0.687%.

In the case of `CCN(CC(=O)Nc1ccc2c(c1)OCCO2)CC(=O)Nc1ccc(C)c([N+](=O)[O-])c1`, the “growth rescue (activation)” value was inactive: 10.4%.

Turning to `CC1(C(=O)NS(=O)(=O)c2ccccc2OC(F)(F)F)CCN1C(=O)c1ccccc1` (configuration not stated), the “growth rescue (activation)” value is inactive: 15.1%.

`CCOc1cc(C(=O)Nc2cccc(OCC(=O)N3CCOCC3)c2)cc(OCC)c1OCC`: the “growth rescue (activation)” value is inactive: -16.1%.

On to `O=C(CN1C(=O)NC2(CCCC2)C1=O)Nc1cccc(C(F)(F)F)c1`, for which the “growth rescue (activation)” value is inactive: 9.29%.

For the molecule `Cn1c(=O)c(=O)n(C)c2cc([N+](=O)[O-])c(N3CCOCC3)cc21`, the “growth rescue (activation)” value was inactive: -1.36%.

`CCc1nc2ccc(C(=O)NCCC(C)C)cn2c1N(CCN(C)C)CC1CC1`: the “growth rescue (activation)” value was inactive: -3.02%.

On to `CS(=O)(=O)N1CCC(C(=O)N2CCN(c3cccc(Cl)c3)CC2)CC1`, for which the “growth rescue (activation)” value was inactive: 4.57%.

In the case of `CCc1ccc(N2CC(O)=C(c3nc4ccccc4c(=O)[nH]3)C2=N)cc1`, the “growth rescue (activation)” value was inactive: -4.78%.

With `CC(OC(=O)c1ccc(NC(=O)CC#N)cc1)C(=O)NC(c1ccccc1)c1ccccc1` (configuration not stated), the “growth rescue (activation)” value is inactive: 25.2%.

In the case of `COCCNC(=O)C1(C)CCCN(C(=O)c2cccc3ccccc23)C1` (configuration not stated), the “growth rescue (activation)” value is inactive: -8.19%.

Consider `CN(C)CCNc1nc(-c2ccccc2F)c2sccc2n1`, for which the “growth rescue (activation)” value is inactive: -13.4%.
